In patent publication US7094873 (University of Texas, dated 2006):

Molecular target: Bovine Hsc70 (Stressgen) (bovine, UniProt P19120)
Assay: cell-based or functional assay

UniProt P19120, sequence (P19120 2-650 limits assumed): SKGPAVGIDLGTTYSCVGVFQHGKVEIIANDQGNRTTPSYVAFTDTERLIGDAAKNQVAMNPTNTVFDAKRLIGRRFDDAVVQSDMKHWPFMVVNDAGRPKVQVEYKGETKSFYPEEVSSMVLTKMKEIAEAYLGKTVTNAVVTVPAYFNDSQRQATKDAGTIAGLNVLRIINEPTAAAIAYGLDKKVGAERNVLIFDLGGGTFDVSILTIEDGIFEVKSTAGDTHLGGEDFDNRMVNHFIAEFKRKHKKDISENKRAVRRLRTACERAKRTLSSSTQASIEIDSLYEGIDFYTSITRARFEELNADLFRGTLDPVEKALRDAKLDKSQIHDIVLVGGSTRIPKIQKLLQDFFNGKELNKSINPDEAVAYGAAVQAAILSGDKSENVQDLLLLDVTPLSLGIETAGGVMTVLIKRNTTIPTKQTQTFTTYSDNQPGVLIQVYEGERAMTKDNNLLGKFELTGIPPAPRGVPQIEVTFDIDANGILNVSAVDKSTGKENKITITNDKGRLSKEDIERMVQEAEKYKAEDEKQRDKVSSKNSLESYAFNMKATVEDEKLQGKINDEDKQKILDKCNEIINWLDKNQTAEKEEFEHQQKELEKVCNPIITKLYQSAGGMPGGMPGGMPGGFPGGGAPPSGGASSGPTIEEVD

rate of ATPase activity of Hsc70: 11 fold
B1: Human Hsp40 (Stressgen) (other)
chain: MGKDYYQTLGLARGASDEEIKRAYRRQALRYHPDKNKEPGAEEKFKEIAEAYDVLSDPRKREIFDRYGEEGLKGSGPSGGSGGGANGTSFSYTFHGDPHAMFAEFFGGRNPFDTFFGQRNGEEGMDIDDPFSGFPMGMGGFTNVNFGRSRSAQEPARKKQ[in this place about 150 residues]PERIPQTSRTVLEQVLPI
